# Laboratory results as given in the supplement of paper PMC8728848.
# The other results are listed elsewhere or left out.
# Tests used:
# Experiment in all cases: glycan array binding signal (z-score within array); higher = stronger binding
# Conditions in all cases: glycan notation: IUPAC condensed, linker removed
# [1] = biological target: Fuc(a1-3)[Gal3S(b1-4)]GlcNAc
# Procedure, shortened: (§1)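 Glycan array data came from 3228 arrays in the Consortium for Functional Glycomics database, and only arrays with an available protein sequence were kept. Glycan names were put into IUPAC-condensed notation, and columns mapping to the same glycan were averaged. The binding signal is a within-array Z-score, averaged across arrays of one protein sequence run at different concentrations or buffers and across linkers. A negative Z-score can be read as non-binding.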
# [2] = biological target: Fuc(a1-3)[Gal3S(b1-4)]GlcNAc6S
# Procedure, shortened: as §1
# [3] = biological target: Fuc(a1-3)[GalNAc(b1-4)]GlcNAc
# Procedure, shortened: as §1
# [4] = biological target: Fuc(a1-3)[GalNAc(b1-4)]GlcNAc6S
# Procedure, shortened: as §1
# [5] = biological target: Fuc(a1-4)GlcNAc
# Procedure, shortened: as §1
# [6] = biological target: Fuc(b1-3)GlcNAc
# Procedure, shortened: as §1
# [7] = biological target: Gal(a1-2)Gal
# Procedure, shortened: as §1
# [8] = biological target: Gal(a1-3)Gal
# Procedure, shortened: as §1
# [9] = biological target: Gal(a1-3)Gal(b1-3)GlcNAc
# Procedure, shortened: as §1
# [10] = biological target: Gal(a1-3)Gal(b1-3)GlcNAc(b1-2)Man
# Procedure, shortened: as §1
# [11] = biological target: Gal(a1-3)Gal(b1-3)GlcNAc(b1-2)Man(a1-3)[Gal(a1-3)Gal(b1-3)GlcNAc(b1-2)Man(a1-6)]Man(b1-4)GlcNAc(b1-4)GlcNAc
# Procedure, shortened: as §1
# [12] = biological target: Gal(a1-3)Gal(b1-3)GlcNAc(b1-3)GalNAc
# Procedure, shortened: as §1
# [13] = biological target: Gal(a1-3)Gal(b1-3)GlcNAc(b1-6)GalNAc
# Procedure, shortened: as §1
# [14] = biological target: Gal(a1-3)Gal(b1-3)[Fuc(a1-4)]GlcNAc(b1-2)Man(a1-3)[Gal(a1-3)Gal(b1-3)[Fuc(a1-4)]GlcNAc(b1-2)Man(a1-6)]Man(b1-4)GlcNAc(b1-4)GlcNAc
# Procedure, shortened: as §1
# [15] = biological target: Gal(a1-3)Gal(b1-4)Glc
# Procedure, shortened: as §1
# [16] = biological target: Gal(a1-3)Gal(b1-4)GlcNAc
# Procedure, shortened: as §1
# [17] = biological target: Gal(a1-3)Gal(b1-4)GlcNAc(b1-2)Man
# Procedure, shortened: as §1
# [18] = biological target: Gal(a1-3)Gal(b1-4)GlcNAc(b1-2)Man(a1-3)[Gal(a1-3)Gal(b1-4)GlcNAc(b1-2)Man(a1-6)]Man(b1-4)GlcNAc(b1-4)GlcNAc
# Procedure, shortened: as §1
# [19] = biological target: Gal(a1-3)Gal(b1-4)GlcNAc(b1-3)GalNAc
# Procedure, shortened: as §1
# [20] = biological target: Gal(a1-3)Gal(b1-4)GlcNAc(b1-6)GalNAc
# Procedure, shortened: as §1
# [21] = biological target: Gal(a1-3)Gal(b1-4)[Fuc(a1-3)]GlcNAc
# Procedure, shortened: as §1
# [22] = biological target: Gal(a1-3)Gal(b1-4)[Fuc(a1-3)]GlcNAc(b1-2)Man(a1-3)[Gal(a1-3)Gal(b1-4)[Fuc(a1-3)]GlcNAc(b1-2)Man(a1-6)]Man(b1-4)GlcNAc(b1-4)GlcNAc
# Procedure, shortened: as §1
# [23] = biological target: Gal(a1-3)GalNAc
# Procedure, shortened: as §1
# [24] = biological target: Gal(a1-3)[Gal(a1-4)]Gal(b1-4)GlcNAc
# Procedure, shortened: as §1
# [25] = biological target: Gal(a1-4)Gal(b1-3)GlcNAc(b1-2)Man(a1-3)[Gal(a1-4)Gal(b1-3)GlcNAc(b1-2)Man(a1-6)]Man(b1-4)GlcNAc(b1-4)GlcNAc
# Procedure, shortened: as §1
# [26] = biological target: Gal(a1-4)Gal(b1-4)Glc
# Procedure, shortened: as §1
# [27] = biological target: Gal(a1-4)Gal(b1-4)GlcNAc
# Procedure, shortened: as §1
# [28] = biological target: Gal(a1-4)Gal(b1-4)GlcNAc(b1-2)Man(a1-3)[Gal(a1-4)Gal(b1-4)GlcNAc(b1-2)Man(a1-6)]Man(b1-4)GlcNAc(b1-4)GlcNAc
# Procedure, shortened: as §1
# [29] = biological target: Gal(a1-4)Gal(b1-4)GlcNAc(b1-3)Gal(b1-4)Glc
# Procedure, shortened: as §1
# [30] = biological target: Gal(a1-4)GlcNAc
# Procedure, shortened: as §1
# [31] = biological target: Gal(a1-6)Glc
# Procedure, shortened: as §1
# [32] = biological target: Gal(b1-2)Gal
# Procedure, shortened: as §1
# [33] = biological target: Gal(b1-3)Gal
# Procedure, shortened: as §1
# [34] = biological target: Gal(b1-3)Gal(b1-4)GlcNAc
# Procedure, shortened: as §1
# [35] = biological target: Gal(b1-3)Gal(b1-4)GlcNAc(b1-2)Man(a1-3)[Gal(b1-3)Gal(b1-4)GlcNAc(b1-2)Man(a1-6)]Man(b1-4)GlcNAc(b1-4)GlcNAc
# Procedure, shortened: as §1
# [36] = biological target: Gal(b1-3)GalNAc
# Procedure, shortened: as §1
# [37] = biological target: Gal(b1-3)GalNAc(a1-3)[Fuc(a1-2)]Gal(b1-4)Glc
# Procedure, shortened: as §1
# [38] = biological target: Gal(b1-3)GalNAc(a1-3)[Fuc(a1-2)]Gal(b1-4)GlcNAc
# Procedure, shortened: as §1
binder,measurement,setting,value
rAAL-2 (Agrocybe aegerita) (protein) MTSNVITQDLPIPVASRGFADIVGFGLDGVVIGRNAVNLQPFLAVKNFAQNAGGWLTTKHVRLIADTTGTGKGDIVGFGNAGVYVSVNNGKNTFADPPKMVIANFGYDAGGWRVEKHLRYLADIRKIGRADIIGFGEKGVLVSRNNGGLNFGPATLVLKDFGYDAGGWRLDRHLRFLADVTGNGHLDIVGFGDKHVFISRNNGDGTFAPAKSVIDNFCIDAGGWKIGDHPRFVADLTGDGTADIIGCGKAGCWVALNNGGGVFGQVKLVINDFGTDKGWQAAKHPRFIADLTGNGRGDVVGFGNAGVYVALNNGDGTFQSAKLVLKDFGVQQGWTVSKHRRFVVDLTGDGCADIIGFGEKETLVSYNDGKGNFGPVKALTNDFSFSGGKWAPETTVCWMANLDSSRH,glycan array binding signal (z-score),[1],-0.157
same,glycan array binding signal (z-score),[2],-0.253
same,glycan array binding signal (z-score),[3],-0.174
same,glycan array binding signal (z-score),[4],-0.304
same,glycan array binding signal (z-score),[5],-0.247
same,glycan array binding signal (z-score),[6],-0.077
same,glycan array binding signal (z-score),[7],-0.106
same,glycan array binding signal (z-score),[8],-0.279
same,glycan array binding signal (z-score),[9],-0.218
same,glycan array binding signal (z-score),[10],-0.036
same,glycan array binding signal (z-score),[11],-0.124
same,glycan array binding signal (z-score),[12],-0.274
same,glycan array binding signal (z-score),[13],0.188
same,glycan array binding signal (z-score),[14],-0.163
same,glycan array binding signal (z-score),[15],-0.146
same,glycan array binding signal (z-score),[16],-0.304
same,glycan array binding signal (z-score),[17],-0.49
same,glycan array binding signal (z-score),[18],-0.322
same,glycan array binding signal (z-score),[19],-0.36
same,glycan array binding signal (z-score),[20],-0.276
same,glycan array binding signal (z-score),[21],-0.221
same,glycan array binding signal (z-score),[22],0.007
same,glycan array binding signal (z-score),[23],-0.284
same,glycan array binding signal (z-score),[24],-0.293
same,glycan array binding signal (z-score),[25],0.191
same,glycan array binding signal (z-score),[26],-0.055
same,glycan array binding signal (z-score),[27],-0.249
same,glycan array binding signal (z-score),[28],0.062
same,glycan array binding signal (z-score),[29],-0.194
same,glycan array binding signal (z-score),[30],-0.183
same,glycan array binding signal (z-score),[31],-0.108
same,glycan array binding signal (z-score),[32],-0.338
same,glycan array binding signal (z-score),[33],-0.27
same,glycan array binding signal (z-score),[34],-0.313
same,glycan array binding signal (z-score),[35],-0.149
same,glycan array binding signal (z-score),[36],-0.241
same,glycan array binding signal (z-score),[37],0.116
same,glycan array binding signal (z-score),[38],-0.131
